# Measurements: the supplement of paper PMC8728848
# The other results are listed elsewhere or left out.
# Columns and labels:
# Experiment in all cases: glycan array binding signal (z-score within array); higher = stronger binding
# Conditions in all cases: glycan notation: IUPAC condensed, linker removed
# [1] = biological target: Gal(b1-4)GlcNAc(b1-3)GalNAc
# Summary of the method: (§1)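 Glycan array data came from 3228 arrays in the Consortium for Functional Glycomics database, and only arrays with an available protein sequence were kept. Glycan names were put into IUPAC-condensed notation, and columns mapping to the same glycan were averaged. The binding signal is a within-array Z-score, averaged across arrays of one protein sequence run at different concentrations or buffers and across linkers. A negative Z-score can be read as non-binding.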
# [2] = biological target: Gal(b1-4)GlcNAc(b1-3)[Gal(b1-4)GlcNAc(b1-6)]GalNAc
# Summary of the method: as §1
# [3] = biological target: Gal(b1-4)GlcNAc(b1-6)Gal(b1-4)GlcNAc(b1-6)GalNAc
# Summary of the method: as §1
# [4] = biological target: Gal(b1-4)GlcNAc(b1-6)GalNAc
# Summary of the method: as §1
# [5] = biological target: Gal(b1-4)GlcNAc(b1-6)[Gal(b1-3)]GalNAc
# Summary of the method: as §1
# Gal3S(b1-3)GalNAc = biological target: Gal3S(b1-3)GalNAc
# Summary of the method: as §1
# Gal3S(b1-3)GlcNAc = biological target: Gal3S(b1-3)GlcNAc
# Summary of the method: as §1
# [6] = biological target: Gal3S(b1-3)[Fuc(a1-4)]GlcNAc
# Summary of the method: as §1
# Gal3S(b1-4)Glc = biological target: Gal3S(b1-4)Glc
# Summary of the method: as §1
# Gal3S(b1-4)Glc6S = biological target: Gal3S(b1-4)Glc6S
# Summary of the method: as §1
# Gal3S(b1-4)GlcNAc = biological target: Gal3S(b1-4)GlcNAc
# Summary of the method: as §1
# Gal3S(b1-4)GlcNAc6S = biological target: Gal3S(b1-4)GlcNAc6S
# Summary of the method: as §1
# Gal3S6S(b1-4)GlcNAc = biological target: Gal3S6S(b1-4)GlcNAc
# Summary of the method: as §1
# Gal3S6S(b1-4)GlcNAc6S = biological target: Gal3S6S(b1-4)GlcNAc6S
# Summary of the method: as §1
# Gal4S(b1-4)GlcNAc = biological target: Gal4S(b1-4)GlcNAc
# Summary of the method: as §1
# Gal4S6S(b1-4)GlcNAc = biological target: Gal4S6S(b1-4)GlcNAc
# Summary of the method: as §1
# Gal6S(b1-4)Glc = biological target: Gal6S(b1-4)Glc
# Summary of the method: as §1
# Gal6S(b1-4)Glc6S = biological target: Gal6S(b1-4)Glc6S
# Summary of the method: as §1
# Gal6S(b1-4)GlcNAc = biological target: Gal6S(b1-4)GlcNAc
# Summary of the method: as §1
# GalNAc(a1-3)Gal = biological target: GalNAc(a1-3)Gal
# Summary of the method: as §1
# GalNAc(a1-3)GalNAc = biological target: GalNAc(a1-3)GalNAc
# Summary of the method: as §1
# [7] = biological target: GalNAc(b1-3)Gal(a1-4)Gal(b1-4)GlcNAc
# Summary of the method: as §1
# GalNAc(b1-3)GalNAc = biological target: GalNAc(b1-3)GalNAc
# Summary of the method: as §1
# GalNAc(b1-4)GlcNAc = biological target: GalNAc(b1-4)GlcNAc
# Summary of the method: as §1
# Glc(a1-4)Glc = biological target: Glc(a1-4)Glc
# Summary of the method: as §1
# Glc(a1-6)Glc(a1-6)Glc = biological target: Glc(a1-6)Glc(a1-6)Glc
# Summary of the method: as §1
# Glc(b1-4)Glc = biological target: Glc(b1-4)Glc
# Summary of the method: as §1
# Glc(b1-6)Glc = biological target: Glc(b1-6)Glc
# Summary of the method: as §1
# GlcA(b1-3)Gal = biological target: GlcA(b1-3)Gal
# Summary of the method: as §1
# GlcA(b1-6)Gal = biological target: GlcA(b1-6)Gal
# Summary of the method: as §1
# [8] = biological target: GlcNAc(a1-3)Gal(b1-4)GlcNAc
# Summary of the method: as §1
# [9] = biological target: GlcNAc(a1-6)Gal(b1-4)GlcNAc
# Summary of the method: as §1
# [10] = biological target: GlcNAc(b1-2)Gal(b1-3)GalNAc
# Summary of the method: as §1
# [11] = biological target: GlcNAc(b1-2)Man(a1-3)[GlcNAc(b1-2)Man(a1-6)]Man(b1-4)GlcNAc(b1-4)GlcNAc
# Summary of the method: as §1
# GlcNAc(b1-3)Gal = biological target: GlcNAc(b1-3)Gal
# Summary of the method: as §1
# [12] = biological target: GlcNAc(b1-3)Gal(b1-3)GalNAc
# Summary of the method: as §1
# GlcNAc(b1-3)Gal(b1-4)Glc = biological target: GlcNAc(b1-3)Gal(b1-4)Glc
# Summary of the method: as §1
# [13] = biological target: GlcNAc(b1-3)Gal(b1-4)GlcNAc
# Summary of the method: as §1
# [14] = biological target: GlcNAc(b1-3)Gal(b1-4)GlcNAc(b1-3)Gal(b1-4)GlcNAc
# Summary of the method: as §1
# GlcNAc(b1-3)GalNAc = biological target: GlcNAc(b1-3)GalNAc
# Summary of the method: as §1
# [15] = biological target: GlcNAc(b1-3)[GlcNAc(b1-6)]Gal(b1-4)GlcNAc
# Summary of the method: as §1
# [16] = biological target: GlcNAc(b1-3)[GlcNAc(b1-6)]GalNAc
# Summary of the method: as §1
# [17] = biological target: GlcNAc(b1-3)[GlcNAc(b1-6)]GlcNAc(b1-4)GlcNAc
# Summary of the method: as §1
# [18] = biological target: GlcNAc(b1-4)Gal(b1-4)GlcNAc
# Summary of the method: as §1
# [19] = biological target: GlcNAc(b1-4)GlcNAc(b1-4)GlcNAc
# Summary of the method: as §1
binder,measurement,setting,value
"MMR (Homo sapiens), P22897 (protein) MRLPLLLVFASVIPGAVLLLDTRQFLIYNEDHKRCVDAVSPSAVQTAACNQDAESQKFRWVSESQIMSVAFKLCLGVPSKTDWVAITLYACDSKSEFQKWECKNDTLLGIKGEDLFFNYGNRQEKNIMLYKGSGLWSRWKIYGTTDNLCSRGYEAMYTLLGNANGATCAFPFKFENKWYADCTSAGRSDGWLWCGTTTDYDTDKLFGYCPLKFEGSESLWNKDPLTSVSYQINSKSALTWHQARKSCQQQNAELLSITEIHEQTYLTGLTSSLTSGLWIGLNSLSFNSGWQWSDRSPFRYLNWLPGSPSAEPGKSCVSLNPGKNAKWENLECVQKLGYICKKGNTTLNSFVIPSESDVPTHCPSQWWPYAGHCYKIHRDEKKIQRDALTTCRKEGGDLTSIHTIEELDFIISQLGYEPNDELWIGLNDIKIQMYFEWSDGTPVTFTKWLRGEPSHENNRQEDCVVMKGKDGYWADRGCEWPLGYICKMKSRSQGPEIVEVEKGCRKGWKKHHFYCYMIGHTLSTFAEANQTCNNENAYLTTIEDRYEQAFLTSFVGLRPEKYFWTGLSDIQTKGTFQWTIEEEVRFTHWNSDMPGRKPGCVAMRTGIAGGLWDVLKCDEKAKFVCKHWAEGVTHPPKPTTTPEPKCPEDWGASSRTSLCFKLYAKGKHEKKTWFESRDFCRALGGDLASINNKEEQQTIWRLITASGSYHKLFWLGLTYGSPSEGFTWSDGSPVSYENWAYGEPNNYQNVEYCGELKGDPTMSWNDINCEHLNNWICQIQKGQTPKPEPTPAPQDNPPVTEDGWVIYKDYQYYFSKEKETMDNARAFCKRNFGDLVSIQSESEKKFLWKYVNRNDAQSAYFIGLLISLDKKFAWMDGSKVDYVSWATGEPNFANEDENCVTMYSNSGFWNDINCGYPNAFICQRHNSSINATTVMPTMPSVPSGCKEGWNFYSNKCFKIFGFMEEERKNWQEARKACIGFGGNLVSIQNEKEQAFLTYHMKDSTFSAWTGLNDVNSEHTFLWTDGRGVHYTNWGKGYPGGRRSSLSYEDADCVVIIGGASNEAGKWMDDTCDSKRGYICQTRSDPSLTNPPATIQTDGFVKYGKSSYSLMRQKFQWHEAETYCKLHNSLIASILDPYSNAFAWLQMETSNERVWIALNSNLTDNQYTWTDKWRVRYTNWAADEPKLKSACVYLDLDGYWKTAHCNESFYFLCKRSDEIPATEPPQLPGRCPESDHTAWIPFHGHCYYIESSYTRNWGQASLECLRMGSSLVSIESAAESSFLSYRVEPLKSKTNFWIGLFRNVEGTWLWINNSPVSFVNWNTGDPSGERNDCVALHASSGFWSNIHCSSYKGYICKRPKIIDAKPTHELLTTKADTRKMDPSKPSSNVAGVVIIVILLILTGAGLAAYFFYKKRRVHLPQEGAFENTLYFNSQSSPGTSDMKDLVGNIEQNEHSVI",glycan array binding signal (z-score),[1],-0.448
same,glycan array binding signal (z-score),[2],-0.437
same,glycan array binding signal (z-score),[3],-0.253
same,glycan array binding signal (z-score),[4],-0.446
same,glycan array binding signal (z-score),[5],-0.446
same,glycan array binding signal (z-score),Gal3S(b1-3)GalNAc,3.15
same,glycan array binding signal (z-score),Gal3S(b1-3)GlcNAc,3.4
same,glycan array binding signal (z-score),[6],3.07
same,glycan array binding signal (z-score),Gal3S(b1-4)Glc,3.67
same,glycan array binding signal (z-score),Gal3S(b1-4)Glc6S,3.45
same,glycan array binding signal (z-score),Gal3S(b1-4)GlcNAc,3.27
same,glycan array binding signal (z-score),Gal3S(b1-4)GlcNAc6S,3.5
same,glycan array binding signal (z-score),Gal3S6S(b1-4)GlcNAc,3.33
same,glycan array binding signal (z-score),Gal3S6S(b1-4)GlcNAc6S,3.58
same,glycan array binding signal (z-score),Gal4S(b1-4)GlcNAc,3.33
same,glycan array binding signal (z-score),Gal4S6S(b1-4)GlcNAc,-0.344
same,glycan array binding signal (z-score),Gal6S(b1-4)Glc,-0.344
same,glycan array binding signal (z-score),Gal6S(b1-4)Glc6S,-0.082
same,glycan array binding signal (z-score),Gal6S(b1-4)GlcNAc,1.55
same,glycan array binding signal (z-score),GalNAc(a1-3)Gal,-0.408
same,glycan array binding signal (z-score),GalNAc(a1-3)GalNAc,-0.392
same,glycan array binding signal (z-score),[7],-0.342
same,glycan array binding signal (z-score),GalNAc(b1-3)GalNAc,-0.413
same,glycan array binding signal (z-score),GalNAc(b1-4)GlcNAc,-0.438
same,glycan array binding signal (z-score),Glc(a1-4)Glc,-0.438
same,glycan array binding signal (z-score),Glc(a1-6)Glc(a1-6)Glc,-0.397
same,glycan array binding signal (z-score),Glc(b1-4)Glc,-0.406
same,glycan array binding signal (z-score),Glc(b1-6)Glc,-0.438
same,glycan array binding signal (z-score),GlcA(b1-3)Gal,0.253
same,glycan array binding signal (z-score),GlcA(b1-6)Gal,0.028
same,glycan array binding signal (z-score),[8],-0.44
same,glycan array binding signal (z-score),[9],-0.446
same,glycan array binding signal (z-score),[10],-0.453
same,glycan array binding signal (z-score),[11],-0.339
same,glycan array binding signal (z-score),GlcNAc(b1-3)Gal,-0.437
same,glycan array binding signal (z-score),[12],-0.432
same,glycan array binding signal (z-score),GlcNAc(b1-3)Gal(b1-4)Glc,-0.43
same,glycan array binding signal (z-score),[13],-0.421
same,glycan array binding signal (z-score),[14],-0.305
same,glycan array binding signal (z-score),GlcNAc(b1-3)GalNAc,-0.426
same,glycan array binding signal (z-score),[15],-0.457
same,glycan array binding signal (z-score),[16],-0.438
same,glycan array binding signal (z-score),[17],-0.456
same,glycan array binding signal (z-score),[18],-0.407
same,glycan array binding signal (z-score),[19],-0.45
